{
  "source": "patent US20140050743A1",
  "about": "“BINDING PROTEINS TO INHIBITORS OF COAGULATION FACTORS” (BAYER INTELLECTUAL PROPERTY GMBH, priority 2011, published 2014)",
  "molecules": {"B1": {"name": "M18-G08-G-DKTHT: non-tagged Fab of variant M18-G08-G; HC SEQ ID NO: 489, LC SEQ ID NO: 490 (antibody, listed as Homo Sapiens)", "heavy": "EVQLLESGGGLVQPGGSLRLSCAASGFTFSSYWMSWVRQAPGKGLEWVSSISSSSSYIYYADSVKGRFTISRDNSKNTLYLQMNSLRAEDTAVYYCARVWRNYLDYWGQGTLVTVSSASTKGPSVFPLAPSSKSTSGGTAALGCLVKDYFPEPVTVSWNSGALTSGVHTFPAVLQSSGLYSLSSVVTVPSSSLGTQTYICNVNHKPSNTKVDKKVEPKSCDKTHT", "light": "QSVLTQPPSASGTPGQRVTISCSGSSSNIGSNTVNWYQQLPGTAPKLLIYSNNQRPSGVPDRFSGSKSGTSASLAITGLQAEDEADYYCQSYDSSLSGWVFGGGTKLTVLGQPKAAPSVTLFPPSSEELQANKATLVCLISDFYPGAVTVAWKADSSPVKAGVETTTPSKQSNNKYAASSYLSLTPEQWKSHRSYSCQVTHEGSTVEKTVAPTECS"}},
  "key": {"[1]": {"assay": "Affinity by surface plasmon resonance (Biacore), analyte edoxaban", "type": "binding", "settings": "Table 7; immobilized Fabs, SPR (Biacore)"}, "dabigatran": {"system": "dabigatran", "assay": "Thrombin generation assay in human platelet poor plasma in the presence of dabigatran", "type": "biochemical", "settings": "Fab 0.72 μM, alone or with 0.1 μM rivaroxaban"}, "[2]": {"assay": "Affinity determination by Isothermal Titration Calorimetry (ITC)", "type": "binding", "settings": "read-out: KD for rivaroxaban estimated from the titration curve (ITC); 25° C., PBS pH 7.4"}, "rivaroxaban": {"system": "rivaroxaban", "assay": "Thrombin generation assay in human platelet poor plasma, reversal of rivaroxaban", "type": "biochemical", "settings": "0.1 μM rivaroxaban; Fab 0, 0.09, 0.72 μM"}, "apixaban": {"system": "apixaban", "assay": "Thrombin generation assay in human platelet poor plasma in the presence of apixaban", "type": "biochemical", "settings": "3 μM apixaban, Fab 1.43 μM, alone or with 0.1 μM rivaroxaban"}, "[3]": {"system": "rivaroxaban (prothrombin time)", "assay": "Prothrombin time (PT) ex vivo (rat PD/PK)", "type": "in vivo", "settings": "rivaroxaban […] oral; Fab 85 mg/kg infusion from 1.5 to 2.5 h"}, "[4]": {"assay": "Affinity by surface plasmon resonance (Biacore), analyte SATI", "type": "binding", "settings": "Table 7; immobilized Fabs, SPR (Biacore)"}, "[5]": {"assay": "KD from unbound rivaroxaban after ultrafiltration (Rosenthal-Scatchard plot) in Dulbeccos PBS", "type": "binding", "settings": "read-out: KD value towards rivaroxaban from the slope of the Rosenthal-Scatchard plot, 0.5 μM Fab, rivaroxaban 0.214 to 0.583 μM, DPBS"}, "[6]": {"system": "bleedings prolonged by rivaroxaban", "type": "in vivo, rat"}, "[7]": {"system": "rivaroxaban induced FXa inhibition", "assay": "Functional neutralization of rivaroxaban in a biochemical Factor Xa activity assay", "protocol": "Serial dilutions of test compounds in assay buffer (50 mM HEPES pH 7.8, 250 mM NaCl, 6 mM CaCl2, 0.01% Brij35, 1 mM glutathione, 4 mM EDTA, 0.05% bovine serum albumin) were performed (typical concentrations ranging from 5 μM to 0.0007 μM).\n20 μL of the diluted test compounds were placed in 384 well microtiter plates (Greiner, Frickenhausen, Germany), followed by the addition of 10 μL of a 1:400 dilution (250 μM) of the FXa substrate Pefafluor Xa (100 mM in DMSO, Loxo, Dossenheim, Germany) in assay buffer. […] Simultaneously, control reactions without rivaroxaban were started.\nDuring incubation at 32° C., reaction progress curves were monitored using a fluorescence microtiter plate reader (e.g Tecan Ultra Evolution, Tecan Group Ltd., Mannedorf, Switzerland; excitation 360 nm, emission 465 nm).\nThe dilution of FXa was chosen that in the control reactions the reaction kinetics was linear, and less than 50% of the substrate was consumed (typical final FXa concentration in the assay: 0.05 nM). […] Results are depicted in FIG. 1."}, "[8]": {"system": "rivaroxaban (FXa activity in plasma)", "assay": "Reversal of rivaroxaban's effect in a FXa activity assay in plasma", "type": "biochemical, human", "settings": "0.05 μM rivaroxaban; Fab 0-1000 nM"}, "SATI": {"system": "SATI", "assay": "Thrombin generation assay in human platelet poor plasma, reversal of SATI", "type": "biochemical", "settings": "0.1 μM SATI; Fab 0, 0.09, 0.72 μM"}, "[9]": {"assay": "Affinity by surface plasmon resonance (Biacore), analyte apixaban", "type": "binding", "settings": "Table 7; immobilized Fabs, SPR (Biacore)"}, "[10]": {"system": "rivaroxaban (prothrombin time)", "assay": "Reversal of rivaroxaban's effect on prothrombin time (PT) in vitro, rat plasma", "type": "biochemical", "protocol": "(§1) Citrated blood (0.11 M Na-citrate/blood, 1:9 v/v) was obtained from human donors by venipuncture or from anesthetized Wistar rats (Charles River) by aortic cannulation and centrifuged at 4000 g for 15 minutes for separation of platelet-poor plasma. […] Antidote was added to the Plasma-rivaroxaban mixture and incubated for another 10 minutes at room temperature. The PT assay was run using Recombiplastin (Instrumentation Laboratory) as tissue factor source on an AMAX 200 automated coagulometer (Trinity Biotech) according to manufacturer's instructions. The composition of the final assay volume is ⅓ plasma and ⅔ PT reagent. […] Data are given as means±sem from 5 experiments and represent final assay concentrations (Table 8 and FIGS. 7 and 8)."}, "[11]": {"system": "rivaroxaban (prothrombin time)", "assay": "Reversal of rivaroxaban's effect on prothrombin time (PT) in vitro, human plasma", "type": "biochemical", "protocol": "as §1"}, "thrombin generation": {"system": "thrombin generation", "assay": "Thrombin generation assay in human platelet poor plasma in the absence of any FXa inhibitor", "type": "biochemical", "settings": "no FXa inhibitor; Fab 0, 0.09, 0.72 μM"}, "[12]": {"assay": "Affinity by surface plasmon resonance (Biacore), analyte razaxaban", "type": "binding", "settings": "Table 7; immobilized Fabs, SPR (Biacore)"}, "[13]": {"assay": "Affinity by surface plasmon resonance (Biacore), immobilized Fab, analyte rivaroxaban", "type": "binding", "settings": "immobilized Fabs, SPR (Biacore)", "description": "“Binding affinity” refers to the strength of the sum total of noncovalent interactions between a single binding site of a molecule and its binding partner. Unless indicated otherwise, as used herein, “binding affinity” refers to intrinsic binding affinity which reflects a 1:1 interaction between members of a binding pair (e.g. an antibody and an antigen). The dissociation constant “KD” is commonly used to describe the affinity between a molecule (such as an antibody) and its binding partner (such as an antigen) i.e. how tightly a ligand binds to a particular protein. Ligand-protein affinities are influenced by non-covalent intermolecular interactions between the two molecules Affinity can be measured by common methods known in the art, including those described herein. In one embodiment, the “KD” or “KD value” according to this invention is measured by using surface plasmon resonance assays using a Biacore T100 instrument (GE Healthcare Biacore, Inc.) according to Example 5. The dissociation equilibrium constant (KD) was calculated based on the ratio of association (kon) and dissociation rated (koff) constants, obtained by fitting sensograms with a first order 1:1 binding model using Biacore Evaluation Software. Other suitable devices are BIACORE(R)-2000, a BIACORE (R)-3000 (BIAcore, Inc., Piscataway, N.J.), or ProteOn XPR36 instrument (Bio-Rad Laboratories, Inc.).\nBinding affinities of Fab-fragments were determined by surface plasmon resonance analysis on a Biacore T100 instrument (GE Healthcare Biacore, Inc.). Fab fragments were diluted to a final concentration of 10 μg/ml in 10 mM sodium acetate, pH 4.5, and immobilized on a CM5 chip (GE Healthcare Biacore, Inc.) at levels of 3000-5000RU by amine-coupling chemistry for flow cells 2, 3 and 4, respectively. Flow cell 1 was used as a reference. […] Sensograms were generated after in-line reference cell correction followed by buffer sample subtraction. The dissociation equilibrium constant (KD) was calculated based on the ratio of association and dissociation rated constants, obtained by fitting sensograms with a first order 1:1 binding model using BiaEvaluation Software."}},
  "note": "Several values for one entry are separate records, joined by “and”; a condition that tells them apart may be missing. Equal entries are not always repeated. Entries after “also recorded” stand apart in the source; their conditions may differ. Where two headings read alike, the source gives them in different places.",
  "data": [
    {"molecule": "B1", "values": [
      {"measurement": "KD Edoxaban", "setting": "[1]", "value": "n.b."},
      {"measurement": "influence on anticoagulative effect of dabigatran in thrombin generation", "setting": "dabigatran", "value": "does not influence the anticoagulative effect of dabigatran"},
      {"measurement": "influence on anticoagulative effect of dabigatran in thrombin generation", "setting": "dabigatran; listed as Fab antidote", "value": "No effect on thrombin generation was detectable"},
      {"measurement": "Kd", "setting": "[2]", "value": "< 1", "unit": "nM"},
      {"measurement": "effect of rivaroxaban on thrombin generation in human plasma", "setting": "rivaroxaban", "value": "concentration-dependently neutralizes; also recorded: neutralizes concentration-dependently"},
      {"measurement": "influence on anticoagulative effect of apixaban in thrombin generation", "setting": "apixaban", "value": "does not influence the anticoagulative effect of apixaban"},
      {"measurement": "influence on anticoagulative effect of apixaban in thrombin generation", "setting": "apixaban; listed as Fab antidote", "value": "No effect on thrombin generation was detectable"},
      {"measurement": "PT in rat plasma ex vivo", "setting": "[3]", "value": "rapid and sustained normalization of PT values"},
      {"measurement": "Kd", "setting": "[4]", "value": "< 10", "unit": "nM"},
      {"measurement": "Kd", "setting": "[5]", "value": "~0.5 nM and ~0.48 nM"},
      {"measurement": "cumulative tail bleeding time prolonged by rivaroxaban", "setting": "[6]; anesthetized rats, rivaroxaban 1 mg/kg i.v., Fab 107.5 mg/kg", "value": "significantly shortens the bleeding time prolonged by rivaroxaban to almost normal values"},
      {"measurement": "Median bleeding time", "setting": "[6]; rivaroxaban 1 mg/kg i.v. plus Fab 107.5 mg/kg 10 minute infusion", "value": 368, "unit": "s"},
      {"measurement": "EC50", "setting": "[7]; Table 6, biochemical FXa-assay, 0.05 nM FXa, 0.6 nM rivaroxaban, read-out: EC50", "value": "< 10", "unit": "nM"},
      {"measurement": "EC50", "setting": "[7]; read-out: EC50 for the reversal of rivaroxaban induced FXa inhibition, FXa 0.05 nM, rivaroxaban 0.6 nM (IC75), progress curves 50 min", "value": 6, "unit": "nM"},
      {"measurement": "reversal of inhibitory effect of rivaroxaban on FXa activity in human plasma", "setting": "[8]", "value": "potently reverse the inhibitory effect of rivaroxaban on FXa"},
      {"measurement": "effect of SATI on thrombin generation in human plasma", "setting": "SATI", "value": "concentration-dependently neutralizes; also recorded: neutralizes concentration-dependently"},
      {"measurement": "KD Apixaban", "setting": "[9]", "value": "n.b."},
      {"measurement": "reversal of effect of rivaroxaban on prothrombin time", "setting": "[10]; 0.4 and 0.8 μM rivaroxaban", "value": "potently reverse the inhibitory effect of rivaroxaban on PT"},
      {"measurement": "IC50", "setting": "[10]; read-out: IC50 M18-G08-G-DKTHT, rivaroxaban 0.4 μM, half-maximal normalization of PT prolongation, mean ± sem, 5 experiments", "value": "140 ± 30", "unit": "nM"},
      {"measurement": "IC50", "setting": "[10]; read-out: IC50 M18-G08-G-DKTHT, rivaroxaban 0.8 μM, half-maximal normalization of PT prolongation, mean ± sem, 5 experiments", "value": "340 ± 170", "unit": "nM"},
      {"measurement": "reversal of effect of rivaroxaban on prothrombin time", "setting": "[11]; 0.17 and 0.33 μM rivaroxaban", "value": "potently reverse the inhibitory effect of rivaroxaban on PT"},
      {"measurement": "IC50", "setting": "[11]; read-out: IC50 M18-G08-G-DKTHT, rivaroxaban 0.17 μM, half-maximal normalization of PT prolongation, mean ± sem, 5 experiments", "value": "70 ± 10", "unit": "nM"},
      {"measurement": "IC50", "setting": "[11]; read-out: IC50 M18-G08-G-DKTHT, rivaroxaban 0.33 μM, half-maximal normalization of PT prolongation, mean ± sem, 5 experiments", "value": "90 ± 20", "unit": "nM"},
      {"measurement": "effect of Fab itself on thrombin generation in human plasma", "setting": "thrombin generation", "value": "do not modify the thrombogram; also recorded: no effect on thrombin generation"},
      {"measurement": "KD Razaxaban", "setting": "[12]", "value": "n.b."},
      {"measurement": "Kd", "setting": "[13]; Table 6, analyte rivaroxaban, read-out: KD", "value": "< 10", "unit": "nM"},
      {"measurement": "Kd", "setting": "[13]; read-out: KD Rivaroxaban, Table 7", "value": "< 10", "unit": "nM"}
    ]}
  ]
}
